About 14,000 (4.5%) of roughly 310,000 compounds showed an effect of 50% or more. Effects have a minus sign here. The list shows a part of the results.
molecular target: human ether-à-go-go-related gene (hERG) potassium channel (human, UniProt Q12809); assay: primary screen, population patch clamp on CHO cells stably expressing hERG
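Also: peak tail current of the secondary pulse compared with the same well before compound.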

human ether-à-go-go-related gene (hERG) potassium channel, sequence (Q12809 whole entry, looked up): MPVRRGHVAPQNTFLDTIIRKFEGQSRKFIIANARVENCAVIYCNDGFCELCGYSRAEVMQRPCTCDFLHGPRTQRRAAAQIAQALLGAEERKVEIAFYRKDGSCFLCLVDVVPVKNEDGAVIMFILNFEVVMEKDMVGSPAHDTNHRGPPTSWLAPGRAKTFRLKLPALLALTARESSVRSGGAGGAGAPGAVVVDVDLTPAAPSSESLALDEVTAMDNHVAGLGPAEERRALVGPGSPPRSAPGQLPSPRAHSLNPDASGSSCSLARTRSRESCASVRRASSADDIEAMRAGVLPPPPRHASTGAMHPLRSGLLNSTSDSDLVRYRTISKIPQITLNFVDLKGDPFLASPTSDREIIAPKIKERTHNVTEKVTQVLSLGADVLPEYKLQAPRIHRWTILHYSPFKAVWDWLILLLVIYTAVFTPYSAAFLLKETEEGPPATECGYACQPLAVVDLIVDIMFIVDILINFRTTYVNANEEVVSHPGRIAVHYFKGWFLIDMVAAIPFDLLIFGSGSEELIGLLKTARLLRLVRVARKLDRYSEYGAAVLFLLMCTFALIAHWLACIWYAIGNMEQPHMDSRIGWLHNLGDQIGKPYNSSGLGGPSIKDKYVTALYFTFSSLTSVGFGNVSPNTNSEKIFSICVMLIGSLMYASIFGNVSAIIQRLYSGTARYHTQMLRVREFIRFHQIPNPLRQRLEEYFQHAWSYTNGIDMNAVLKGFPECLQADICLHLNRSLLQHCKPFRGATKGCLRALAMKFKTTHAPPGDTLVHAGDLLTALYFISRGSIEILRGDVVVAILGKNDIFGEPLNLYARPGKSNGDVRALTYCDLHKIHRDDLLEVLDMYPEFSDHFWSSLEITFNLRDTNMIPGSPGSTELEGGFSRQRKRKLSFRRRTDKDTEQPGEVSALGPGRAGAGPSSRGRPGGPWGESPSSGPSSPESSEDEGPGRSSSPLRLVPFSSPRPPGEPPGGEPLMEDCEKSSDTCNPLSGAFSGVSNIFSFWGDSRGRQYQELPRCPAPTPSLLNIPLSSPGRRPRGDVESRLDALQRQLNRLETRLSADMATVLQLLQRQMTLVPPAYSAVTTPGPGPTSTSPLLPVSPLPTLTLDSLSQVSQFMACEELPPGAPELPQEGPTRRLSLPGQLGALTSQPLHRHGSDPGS

Row | Structure (SMILES) | hERG current change (%, negative = inhibition) at 10uM [%]
1 | O=C(NC1(C(F)(F)F)N=C2SCCN2C1=O)c1ccccc1 (stereo not shown) | 16.5
2 | Cc1ccc2nc3c(cc(C(=O)NCCCn4ccnc4)n3C)c(=O)n2c1 | -34.1
3 | Br.COc1ccc(C(=O)Cn2c(=N)n(C)c3ccccc32)cc1 | -28.8
4 | Cc1nn(Cc2ccccc2)c(C)c1NC(=O)CCCn1nc(C)c([N+](=O)[O-])c1C | -16.3
5 | COC(=O)C(=C/C=C/N1CCOCC1)C(=O)OC | 12.6
6 | CCCCC(C(=O)NC1CCCC1)N(C(=O)c1snc(C(N)=O)c1N)c1ccc(F)cc1 (stereo not shown) | 0.15
7 | O=[N+]([O-])c1ccccc1/C=C/CN1CCCCC1CO (stereo not shown) | 5.49
8 | Cc1ccccc1N1CCN(C2CCCN(C(=O)c3cn4c(C)cccc4n3)C2)CC1 (stereo not shown) | -58.1
9 | CCN(CC)c1ccc([N+](=O)[O-])c2cccnc12 | -11
10 | Cc1ccccc1NC(=O)CSc1nc(N)c(C#N)cc1C#N | 0.675
11 | O=C(O)CSc1ccc(S(=O)(=O)N2CCCC2)cn1 | -1.86
12 | CCOC(=O)/C(C#N)=C/c1c(N2CCN(CC)CC2)nc2c(C)cccn2c1=O | -24.1
13 | O=C(c1cccs1)c1no[n+]([O-])c1C(=O)c1cccs1 | -25.8
14 | Cc1sc2ncnc(OCC(=O)NCc3cccs3)c2c1C | 6.03
15 | Cc1ccccc1C(=O)c1cccn1CC(=O)NCc1ccccc1 | 21.7
16 | CCC(CCC(=O)Nc1cccc(C(=O)O)c1)C(=O)O (stereo not shown) | 9.97
17 | COC(=O)c1cn(Cc2cccc(C)c2)nn1 | -7.11
18 | CNC(=O)C(=O)NCC(c1cccs1)S(=O)(=O)c1ccc(C)cc1 (stereo not shown) | 12.8
19 | COc1ccc(-c2nnc(NC(=O)c3c(OC)cccc3OC)s2)cc1 | 19.8
20 | Nc1c(C(=O)CSc2nnc(N3CCOCC3)n2-c2cccc(F)c2)c(=O)[nH]c(=O)n1C1CC1 | 18.2
21 | CCOC(=O)c1c(COc2ccccc2)oc2ccc(O)cc12 | -10.7
22 | COc1cc(CCNC(=O)CCCn2c(=O)c3cccn3c3cccnc32)cc(OC)c1OC | -12.7

Row | Structure (SMILES) | hERG current change (%, negative = inhibition) at 10uM [%]
23 | CCOc1ccc(CCNC(=O)CN2CCN(Cc3ccc(F)cc3)C2=O)cc1OCC | 1.53
24 | CCCOC(=O)c1ccc(NC(=O)c2ccccc2[N+](=O)[O-])cc1 | -2.89
25 | O=C(Cn1nc(-c2ccccc2)ccc1=O)Nc1ccc(NC(=O)c2ccccn2)cc1 | 6.1
26 | Cc1ccc(C)c(S(=O)(=O)N2CCN(C(=O)CCc3nc4ccccc4c(=O)[nH]3)CC2)c1 | -47.1
27 | CC(Oc1ccccc1)C(=O)OCC(=O)Nc1sccc1C(N)=O (stereo not shown) | -17.2
28 | CC1CC1C(=O)Nc1nc(-c2ccc(Cl)s2)cs1 (stereo not shown) | 24.9
29 | COc1ccc(C(C(=O)NC2CCCCC2)N(C(=O)c2cccs2)c2ccc3c(c2)OCO3)cc1 (stereo not shown) | 14.2
30 | CC(C)CN(Cc1cc(=O)oc2cc(-c3ccccc3)c(O)cc12)CC(C)C | 50
31 | O=C1Nc2ccccc2/C1=N/c1sc2c(c1C(=O)NCCc1ccccc1)CCCC2 | 0.909
32 | COc1ccccc1CNN.Cl | 28.2
33 | Cc1ccccc1C(=O)Nc1ccc(Cl)cn1 | 6
34 | O=C(COC(=O)c1cc[n+]([O-])cc1)Nc1ccc(SC(F)F)cc1 | -18.7
35 | CCCCOc1ccc(/C=C2/Sc3ccccc3C2=O)cc1 | 9.77
36 | CC(C)(Oc1ccc(Cl)cc1)C(=O)NC1CCN(Cc2ccccc2)CC1 | -70.4
37 | CCn1c(SCc2nc3ccccc3nc2C)nnc1-c1cccs1 | -12.3
38 | Cc1cccc(NS(=O)(=O)c2cccc(C(=O)N3CCN(c4ccccn4)CC3)c2)c1 | -22.7
39 | COc1ccc(-c2cc(NC(=O)c3cncn3-c3ccccc3)ccc2OC)cc1 | 5.97
40 | CCOc1cc(NC(=O)C2CCCCC2)c(OCC)cc1NC(=O)c1ccccn1 | 15.5
41 | CCOC(=O)c1ccc(S(=O)(=O)N2CCC(C(=O)NCC3CCCCC3)CC2)cc1 | -0.177
42 | Cc1cc(N2CCCC2)ccc1NC(=O)CN1C(=O)NC2(CCCCC2)C1=O | -15.1
43 | Cn1c(Oc2ccccc2NCc2cc(Br)ccc2O)cc(=O)n(C)c1=O | 4.67
44 | CCN(CC)S(=O)(=O)c1ccc(N/N=C(\C)c2ccncc2)c([N+](=O)[O-])c1 | 13

Row | Structure (SMILES) | hERG current change (%, negative = inhibition) at 10uM [%]
45 | Cc1nnc(Oc2ccccc2F)c2ccccc12 | 2.82
46 | Cc1[nH]ccc(=O)c1Cc1c(Cl)cccc1Cl | -14.6
47 | Cc1ccc(S(=O)(=O)N2CCN(Cc3cc4c(cc3Br)OCCO4)CC2)cc1 | 10.6
48 | CCOc1ccc(N/C(C)=C/C(=O)c2ccc3c(c2)OCCO3)cc1 | 9.27
49 | C/C(=N/NC(=O)c1ccc(Cl)s1)c1cccnc1 | -20.2
50 | CN(CC(=O)Nc1ccccc1Cl)C(=O)COC(=O)CSc1ccc(Cl)cc1 | 5.61
51 | COc1ccc(/C=N/n2cnc3c([nH]c4ccccc43)c2=O)cc1COc1ccccn1 | -8.67
52 | N/C(=N\OC(=O)c1ccncc1)c1cccc([N+](=O)[O-])c1 | -8.06
53 | Cc1cc(C)c2c(CN3CCN(Cc4ccccc4)CC3)cc(=O)oc2c1C.Cl | -40.8
54 | Cc1ccc(C(=O)CCC(=O)Nc2cc(C)ccn2)cc1 | 1.08
55 | O=C(CCCOc1ccc(Cl)cc1)Nc1ccc(N2CCOCC2)cc1 | 4.66
56 | Cc1cc(C)n(-c2nc3ccccc3nc2Nc2ccc3[nH]c(=O)[nH]c3c2)n1 | 2.92
57 | CCN(CCCNC(=O)CCc1nc(-c2ccc(C)cc2)no1)c1cccc(C)c1 | 4.97
58 | Cc1sc(NC(=O)CSc2nnc(COc3ccc(Cl)cc3)n2C)c(C#N)c1C | -9.16
59 | c1ccc(CNc2ccc3ccccc3n2)nc1 | -27.5
60 | Cn1ccnc1C1CCCCN1C(=O)c1cc(COc2ccc(F)cc2Cl)on1 (stereo not shown) | -24.1
61 | Nc1nnn(CC(=O)N/N=C/c2ccccc2Cl)n1 | 15.5
62 | c1ccc(-c2noc(-c3ccc4c(c3)OCO4)n2)nc1 | 12.2
63 | Cc1ccc(C2OC34CCCCCC3C(C#N)(C(=N)O4)C2(C#N)C#N)cc1 (stereo not shown) | 14
64 | O=C(NCCc1ccc2c(c1)OCCO2)c1cc2ccccc2o1 | -35.7
65 | S=C(NCCc1ccccn1)NC1CCCCC1 | 14.7
66 | Cc1ccc(CNc2ccc(N3CCOCC3)c(C(=O)O)c2)s1 | -23.4

Row | Structure (SMILES) | hERG current change (%, negative = inhibition) at 10uM [%]
67 | Cc1ccc(S(=O)(=O)/N=C/c2ccco2)cc1 | 13.8
68 | CCn1cc(C(=O)NCCCOC)c(=O)c2cc(S(=O)(=O)N(C)C)ccc21 | 14.3
69 | COc1ccc(/C=C2/SC(=O)N(CCNC(=O)C3CCCN3C(=O)c3cccs3)C2=O)cc1 (stereo not shown) | -22.8
70 | CCCCOC(=O)N/N=C/C=C/c1ccccc1 | -9.28
71 | Cn1c(SCC(=O)NC2CCCCCC2)nnc1-c1ccco1 | -9.27
72 | CC(C)OCCCNC(=O)CCSc1ccc(Cl)cc1 | -4.12
73 | O=C(Cn1c(=O)n(-c2ccc(F)cc2)c(=O)c2sccc21)c1ccccc1 | -20.5
74 | N#Cc1c(-c2ccccc2)cc(-c2ccc3c(c2)OCO3)[nH]c1=O | 7.02
75 | CCOC(=O)C1CCCN(C(=O)CCn2nnnc2CN2CCOCC2)C1 (stereo not shown) | 18.4
76 | CCC(C)n1c(=N)c(C#N)cc2c(=O)n3ccccc3nc21 (stereo not shown) | -40.9
77 | COC(=O)Cc1ccc2sc(-c3ccccc3)nc2c1 | 4.39
78 | CCOc1ccc(CNc2ncnc(N)n2)cc1 | -1.99
79 | CC1(C)CC2c3cccc(C(=O)O)c3C(=O)N2c2c1ccc1ccccc21 (stereo not shown) | 8.94
80 | COC(=O)[C@@]1(Cc2ccc(F)cc2)[C@H]2c3cc(C(=O)N(C)C)n(Cc4c(CO)[nH]cc(C)c4=O)c3C[C@H]2CN1C(=O)c1ccccc1 | 11.9
81 | Cc1cccc(OCCCC(=O)Nc2ccc(S(=O)(=O)Nc3onc(C)c3C)cc2)c1C | 13
82 | CCn1nc(NS(=O)(=O)c2ccccc2)c2cc3cccc(C)c3nc21 | 6.7
83 | COc1ccc(Nc2c(-c3ccc(OC)cc3)nc3cnccn23)cc1 | -27.6
84 | COC(=O)/C(C#N)=C/c1c(N2CCN(c3ccccc3)CC2)nc2ccccn2c1=O | -33.9
85 | COC(=O)c1ccc(COc2ncnc3ccccc23)o1 | 15.4
86 | Cc1c(C(=O)OC(C)C)sc(NC(=O)C2CCCO2)c1C(=O)OC(C)C (stereo not shown) | 2.16
87 | O=C(c1cccs1)N1CCCC(c2nc3c(nnn3Cc3ccc(F)cc3)c(=O)[nH]2)C1 (stereo not shown) | 17.8
88 | CC1(C)CC(=O)C=C(Nc2ccc(Br)cn2)C1 | 8.81

Source: article PMC4336329 (PLoS ONE, 2015)
